Experimental findings from ChEMBL document CHEMBL4888484, “Replenishing the malaria drug discovery pipeline: Screening and hit evaluation of the MMV Hit Generation Library 1 (HGL1) against asexual blood stage Plasmodium falciparum ,using a nano luciferase reporter read-out” (2022) are described below.

Each structure is given as a SMILES string. Out of some 150,000 compounds screened, about 540 (0.36%) showed an effect of 50% or more. The list shows a part of the results.

In the assay the test system is Plasmodium falciparum. In words: Primary screen in NF54 nanoGlo assay, in single point, at 2uM, 72h; a lower Z score goes with more inhibition. To be noted: timepoint 72 hour. The assay is classed as functional, Erythrocyte.
In general, % Inhibition refers to the relative decrease from the control value, in per cent. Take `Cc1c(CN2CCC(CNC(=O)c3ccnn3C)CC2)cnn1C`: the “% Inhibition” value is reported as 4% and the Z score is recorded as -0.85.

For the molecule `CCOC[C@@]12CCN(C(C)=O)C[C@@H]1CN(C(=O)c1ccoc1)C2`, the “% Inhibition” value is -17% and the Z score is on record as 1.95.

As for `Cc1nn(C)c2nc(N3CCC(OCc4cccnc4)CC3)sc12`, the “% Inhibition” value was -13% and the Z score came to 1.29.

In the case of `C[C@@H](Cn1cccn1)NC(=O)C1CCCCC1`, the “% Inhibition” value was -5% and the Z score was 0.8.

As for `CCc1nc(CNc2nc(-c3ccco3)nc3c2CCN(C)CC3)no1`, the “% Inhibition” value is listed as -6% and the Z score is listed as 0.9.

Consider `Cc1cn2nc(NC[C@@H](CO)Cc3ccc(F)cc3)sc2n1`, for which the “% Inhibition” value is listed as -10% and the Z score was 1.38.

Regarding `COCCNc1nc(CC(=O)N[C@@H]2C[C@H]2C2CCCCC2)cs1`, the “% Inhibition” value was determined as 4% and the Z score is -0.73.

As for `CCOc1ccc([C@@H](CNS(=O)(=O)N2CCCC2)c2c[nH]c3ccccc23)cc1OC`, the “% Inhibition” value is -5% and the Z score is given as 0.38.

As for `CCOCc1nc2c(c(NCc3cccnc3OCC)n1)CCNCC2`, the “% Inhibition” value was -11% and the Z score came to 2.17.

On to `Cc1cccc(C)c1OC[C@@H](O)CN1C(=O)NC2(CCCC2)C1=O`, for which the “% Inhibition” value is -6% and the Z score was determined as 0.85.

For the molecule `Cc1ccc(C)c(NC(=O)[C@H]2CCn3ccnc3C2)c1`, the “% Inhibition” value is recorded as -9% and the Z score turned out to be 1.51.

Consider `COCc1nc(C(=O)OCCN(C)c2ccccc2)cs1`, for which the “% Inhibition” value was -14% and the Z score stood at 1.82.

For the molecule `CC1(c2cc(NC(=O)NC(CC3CCCO3)C(F)(F)F)no2)CCCC1` (centres undefined), the “% Inhibition” value is -6% and the Z score came to 1.21.

`CN(Cc1ccc(F)c(F)c1)c1nnc(C2CCN(c3ncccn3)CC2)n1C`: the “% Inhibition” value is given as -12% and the Z score is 2.26.

Turning to `CCOC(=O)N1CCC(NC2CCCCC2C)CC1` (centres undefined), the “% Inhibition” value is -11% and the Z score was 1.59.

Regarding `O=C(Cc1csc(-c2ccccc2)n1)N1C[C@H](O)CO1`, the “% Inhibition” value is recorded as -17% and the Z score turned out to be 2.91.

Turning to `CC(C)Oc1ccc(-c2nc(=O)c(CCC(=O)NCCN3CCCCC3)n[nH]2)cc1`, the “% Inhibition” value is given as -1% and the Z score is reported as 0.21.

`CCc1ccc(S(=O)(=O)N(CCOC)c2ccncc2)s1`: the “% Inhibition” value is on record as -8% and the Z score is reported as 0.88.

For the molecule `COC[C@H]1[C@H](NC(=O)Cc2nonc2C)[C@H]2CCO[C@H]21`, the “% Inhibition” value is -11% and the Z score is 1.15.

Consider `CCC1CCN(C(=O)c2cn3c(n2)CC[C@H](C)C3)CC1`, for which the “% Inhibition” value is listed as -8% and the Z score was 1.08.

Turning to `COc1cncc(C(NS(=O)(=O)c2cnn(C)c2)[C@H]2C[C@@H](O)C2)c1` (some centres undefined), the “% Inhibition” value is recorded as -17% and the Z score worked out at 1.57.

Consider `O=C(N[C@@H]1CCN(C(=O)CC2CCCCC2)C[C@@H]1CO)c1cccnc1`, for which the “% Inhibition” value is 1% and the Z score is -0.23.

In the case of `COc1ccc(C(=O)N2C[C@@H]3CN(C(C)=O)C[C@]3(C(=O)N3CCCC3)C2)c(C)c1`, the “% Inhibition” value was -12% and the Z score is recorded as 1.56.

Regarding `Cc1c(C(=O)N(C)C[C@H]2COc3ccccc3O2)cnn1C`, the “% Inhibition” value is given as -6% and the Z score amounted to 0.73.

Take `Cc1ccc(NC(=O)CC2CC3CCC2C3)c(Br)c1` (centres undefined): the “% Inhibition” value worked out at 34% and the Z score is recorded as -0.93.

As to `c1cncc(CNC[C@H]2CN(C3CC3)CCO2)c1`, the “% Inhibition” value was -7% and the Z score was 0.73.

For `O=C(COc1ccc2c(c1)OCO2)Nc1nccs1`, the “% Inhibition” value is -1% and the Z score amounted to 0.18.

Consider `CC(C)C[C@H](NC(=O)c1cscn1)C(=O)Nc1cc[nH]n1`, for which the “% Inhibition” value is reported as -12% and the Z score turned out to be 1.26.

Consider `Cc1nc(C)c(F)c(NC2CCCC(CO)C2)n1` (centres undefined), for which the “% Inhibition” value was 4% and the Z score is -0.58.

Take `COc1ccc(CNC(=O)CN2CCc3[nH]c4ccc(F)cc4c(=O)c3C2)cc1`: the “% Inhibition” value was 6% and the Z score is on record as -0.72.

Take `CC(=O)Nc1ccnc(Cc2ccccc2)n1`: the “% Inhibition” value was -8% and the Z score is given as 1.29.

Regarding `CCOc1ccc(-c2nc(-c3ccc4c(c3)OCO4)cs2)cc1OC`, the “% Inhibition” value is listed as -34% and the Z score was determined as 4.04.

For `COc1cc(C)ccc1NC(=O)N1CCC[C@H](CN2CCOCC2)C1`, the “% Inhibition” value was determined as 0% and the Z score is recorded as 0.

As for `CC[C@@]1(C)CCCN(C(=O)c2cn3nccc3nc2C)C1`, the “% Inhibition” value is reported as -12% and the Z score is given as 1.52.

For `COc1ccc(-c2cc(-c3ccc(C)cc3)nc3sc(C(=O)Nc4ccc5c(c4)OCO5)c(N)c23)cc1`, the “% Inhibition” value was found to be 33% and the Z score is -3.72.

Take `O=C(CCCc1ccccc1)Nc1cc(C2CC2)nn1-c1nc(-c2ccccc2)cc(=O)[nH]1`: the “% Inhibition” value is given as 54% and the Z score is given as -8.76.

Turning to `C[C@H]1CCCCN1C(=O)CN1CCN(c2nccn3cnnc23)CC1`, the “% Inhibition” value is 36% and the Z score is on record as -0.74.

Take `CC(C)C(=O)NCC(=O)N1CCC[C@H](c2[nH]ncc2-c2ccccc2)C1`: the “% Inhibition” value is -11% and the Z score is 2.1.

As for `O=S(=O)(c1ccco1)N1CCCCCO1`, the “% Inhibition” value is recorded as -11% and the Z score is 2.03.

As to `CC(=O)c1c(F)cccc1NCC1(C(N)=O)CCOCC1`, the “% Inhibition” value worked out at 20% and the Z score is on record as -2.24.

In the case of `Cn1nc2c(c1CNC(=O)N1CCOCC1)CCC2`, the “% Inhibition” value was 13% and the Z score is -1.63.

Regarding `Cc1ccc(C(=O)N2CCC(n3cnnc3)CC2)n1C(F)F`, the “% Inhibition” value is given as -17% and the Z score was determined as 2.61.
